{"source": "PubChem BioAssay AID1508624", "about": "(National Center for Advancing Translational Sciences (NCATS), 2021)", "note": "The campaign covered roughly 48,000 compounds. About 120 (0.25%) were called active. Another 4% or so got no clear call; they are omitted. Calls come from the whole dose curve; as a rule, active = well fitted activation curve with a large enough effect; inconclusive = small, poorly fitted or top-dose-only effect, or another doubt; inactive = no such curve, though single readings can be large or run the other way. The list shows a part of the results."}
{"assay": "Primary qHTS for Identification of Small Molecule Activators of Huntingtin-Antisense Promoter Activity; note: nearly all actives have a fitted effect of over 55% in size", "settings": "HEK293 HTT-AS promoter firefly luciferase reporter, 24 h; series mostly up to 57.5 µM; activity change, positive = activation: at the top concentration", "procedure,_shortened": "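Quantitative HTS used concentration series of up to 57.5 uM final on HEK293 luciferase reporter cells, 24 h at 37 degrees C. Readout was Dual-Glo firefly luminescence.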"}
{"smiles": "COc1cc(NC(=O)c2nnn(CC(=O)Nc3ccccc3)c2N)cc(OC)c1", "activity change, positive = activation": "inactive: -22.4%"}
{"smiles": "CC(C)(C#N)c1cc(Cn2cncn2)cc(C(C)(C)C#N)c1", "activity change, positive = activation": "inactive"}
{"smiles": "O=C(NC1CCCCC1)c1ccc2c(c1)N(Cc1ccccc1)C(=O)c1ccccc1S2", "activity change, positive = activation": "inactive: -6.83%"}
{"smiles": "O=C(CN1C(=O)C2(SCC(=O)N2c2ccccc2)c2ccccc21)NCc1ccccc1Cl", "note": "(stereo not drawn)", "activity change, positive = activation": "inactive: -24.4%"}
{"smiles": "CCCc1nn2c(=O)cc(COC(=O)c3ccc(NC(=O)C(C)Oc4ccccc4)cc3)nc2s1", "note": "(stereo not drawn)", "activity change, positive = activation": "inactive: -9.73%"}
{"smiles": "CCCCNc1nc(Oc2ccc(=O)n(C)n2)nc(N(C)C)n1", "activity change, positive = activation": "inactive: 1.08%"}
{"smiles": "CSc1nc(-c2ccc(F)cc2)nc2c1Cc1c(CO)cnc(C)c1O2", "activity change, positive = activation": "inactive: -7.04%"}
{"smiles": "Cc1ccc(-c2nc3c4ccccc4n(Cc4cccc(Cl)c4)c(=O)n3n2)cc1", "activity change, positive = activation": "inactive: -1.88%"}
{"smiles": "CCN1CCN(CCCNC(=O)Cn2nc(C)n3c(cc4cc(C)ccc43)c2=O)CC1", "activity change, positive = activation": "inactive: -3.09%"}
{"smiles": "CCc1ccc(S(=O)(=O)c2nnn3c2nc(N2CCCC(C)C2)c2cc(Cl)ccc23)cc1", "note": "(stereo not drawn)", "activity change, positive = activation": "inactive: -1.51%"}
{"smiles": "COc1ccc(OC)c(CNC(=O)C2COc3ccccc3C2)c1", "note": "(stereo not drawn)", "activity change, positive = activation": "inactive: -7.67%"}
{"smiles": "CCOC(=O)Cc1ccc(NC(=O)N2CC(CC)Oc3ccccc32)cc1", "note": "(stereo not drawn)", "activity change, positive = activation": "inactive: -15.7%"}
{"smiles": "COc1ccc(Br)cc1CNC(=O)c1ccc2c(c1)nc1n2CCCCC1", "activity change, positive = activation": "inactive: -14.1%"}
{"smiles": "Cc1cccc(CN2C(=O)c3ccccc3S(=O)(=O)c3ccc(C(=O)N4CCN(c5cc(C)ccc5C)CC4)cc32)c1", "activity change, positive = activation": "inactive: -16%"}
{"smiles": "CCc1ccc(-c2cc3c(N4CCN(c5ccccc5)CC4)nccn3n2)cc1", "activity change, positive = activation": "inactive: 11.7%"}
{"smiles": "COc1ccc(N2CCN(C(=O)CCn3cnc4onc(-c5ccc(F)cc5)c4c3=O)CC2)cc1", "activity change, positive = activation": "inactive: -42.3%"}
{"smiles": "CC(=O)N/N=C/c1ccc([N+](=O)[O-])o1", "activity change, positive = activation": "inactive: 3.68%"}
{"smiles": "Cc1cccc(-c2nc3nc(C)cc(N4CCN(c5ccccc5)CC4)n3n2)c1", "activity change, positive = activation": "inactive: -6.14%"}
{"smiles": "COc1ccc(NC(=O)N2CCN(c3cc(-c4noc(C)n4)ccc3C)CC2)c(OC)c1", "activity change, positive = activation": "inactive: -16.1%"}
{"smiles": "CC(C)(C)C1CCc2c(sc(NC(=O)c3ccncc3)c2C(=O)Nc2ccccc2Cl)C1", "note": "(stereo not drawn)", "activity change, positive = activation": "inactive: -8.19%"}
{"smiles": "COc1cccc(N2CCN(Cc3nnc(-c4ccc5c(c4)OCO5)o3)CC2)c1", "activity change, positive = activation": "inactive: -8.64%"}
{"smiles": "COc1ccc(NS(=O)(=O)c2ccc(NS(=O)(=O)c3ccc4c(c3)OCCO4)cc2)cc1", "activity change, positive = activation": "inactive: -29.2%"}
{"smiles": "Cc1c(C(=O)NCc2ccccc2Cl)sc2nc3n(c(=O)c12)CCC3", "activity change, positive = activation": "inactive: 14.4%"}
{"smiles": "COc1ccc(N(CC(=O)NCc2ccc(C)cc2)S(=O)(=O)c2c(C)[nH]c(=O)[nH]c2=O)cc1", "activity change, positive = activation": "inactive: 11.3% [at 11.5 µM, percent change from vehicle, -100% = no light]"}
{"smiles": "Cc1cc(C)cc(N2CCn3c2nc2c3c(=O)n(CCc3ccccc3)c(=O)n2C)c1", "activity change, positive = activation": "inactive: -4.14%"}
{"smiles": "CCCCC(=O)Nc1ccc(C(=O)OCc2cc(=O)n3nc(C4CC4)sc3n2)cc1", "activity change, positive = activation": "inactive: 2.03%"}
{"smiles": "COC(=O)C1=C(c2ccccc2)c2ccccc2S(=O)(=O)N1CC(=O)Nc1ccccc1C(F)(F)F", "activity change, positive = activation": "inactive: -22.1%"}
{"smiles": "COc1ccc(S(=O)(=O)Cc2ccc(C(=O)NC3CCCCC3)o2)cc1", "activity change, positive = activation": "inactive: -34%"}
{"smiles": "C=CCN1CCc2nc(N)sc2CC1", "activity change, positive = activation": "inactive: -1.39%"}
{"smiles": "Cc1cccc(N2CCN(c3ccc(C(=O)O)cc3NC(=O)c3ccccc3F)CC2C)c1", "note": "(stereo not drawn)", "activity change, positive = activation": "inactive: -19.7%"}
{"smiles": "Cn1c(=O)n(CCc2ccccc2)c(=O)c2c1nc1n2CCN1c1ccc(Cl)cc1", "activity change, positive = activation": "inactive: -6.69%"}
{"smiles": "CC(C(=O)Nc1ccccc1C(F)(F)F)n1nc(-c2ccccc2)c2c(c1=O)CCCC2", "note": "(stereo not drawn)", "activity change, positive = activation": "inactive: -27.9%"}
{"smiles": "CC(C)CC(=O)Nc1c(C(=O)N2CCN(c3ccccc3F)CC2)oc2ccccc12", "activity change, positive = activation": "inactive: -14.8%"}
{"smiles": "Cc1cc(C)c2c(-n3cccc3)c(C(=O)NCCc3ccccc3)sc2n1", "activity change, positive = activation": "inactive: -4.36%"}
{"smiles": "CCN(CC)c1ccc(C(=O)NCc2ccc3c(c2)CCN3C(C)=O)cc1", "activity change, positive = activation": "inactive: 10.3%"}
{"smiles": "CC(=O)c1ccc(N2CCN(C(=O)Nc3cccc(F)c3)CC2)cc1", "activity change, positive = activation": "inactive: -21.3%"}
{"smiles": "O=C(Nc1nonc1-c1ccc(Br)cc1)c1ccco1", "activity change, positive = activation": "inactive: -20%"}
{"smiles": "Cc1nc2ccccc2n1CCc1nc2c3ccccc3nc(SCC(=O)Nc3ccc(C(C)C)cc3)n2n1", "activity change, positive = activation": "inactive: -62.9%"}
{"smiles": "COc1cccc(Cn2cc(S(=O)(=O)c3ccc(C)cc3)c(=O)c3cc4c(cc32)OCO4)c1", "activity change, positive = activation": "inactive: 19.1%"}
{"smiles": "COc1ccc(NC(=O)c2ccco2)cc1NC(=O)COc1ccc(C)cc1C", "activity change, positive = activation": "inactive: -26.1%"}
{"smiles": "Cc1ccc(NC(=O)Cc2ccc(NC(=O)N3CCCCc4ccccc43)cc2)cc1", "activity change, positive = activation": "inactive: -9.15%"}
{"smiles": "CCCc1ccc(NC(=O)C2CCN(c3cnccn3)CC2)cc1", "activity change, positive = activation": "inactive: -25.2%"}
{"smiles": "Cc1cc(Cl)ccc1NC(=O)CN1C(=O)C(=O)c2ccccc21", "activity change, positive = activation": "inactive: -11.6%"}
{"smiles": "CSc1cccc(NC(=O)Cn2nnc(C(=O)NCCc3ccccc3)c2N)c1", "activity change, positive = activation": "inactive: -6.74%"}
{"smiles": "CCN1CCN(C(c2ccccc2)c2c(O)cc(C)n(CCOC)c2=O)CC1", "note": "(stereo not drawn)", "activity change, positive = activation": "inactive: -6.12%"}
{"smiles": "Cc1ccc(Cn2c(C(=O)O)c(CNCCc3ccco3)c3ccc(C)cc32)cc1", "activity change, positive = activation": "inactive: -18.7%"}
{"smiles": "Cc1cc(C)c(C(=O)Nc2ccccc2)c(SCC(=O)Nc2ccc(Br)cc2C)n1", "activity change, positive = activation": "inactive: -23.1%"}
{"smiles": "Cc1c[nH]c2ccccc12", "activity change, positive = activation": "inactive: -8.2%"}
